{
  "source": "PubChem BioAssay AID588342",
  "about": "(National Center for Advancing Translational Sciences (NCATS), 2011)",
  "note": "About 25,000 (6.9%) of roughly 360,000 compounds were called active. Inconclusive results, whose numbers are uncertain, are shown with a selection of clear calls. Calls follow the shape of the dose curve; as a rule, active = well fitted inhibition curve with a large enough effect; inconclusive = small, poorly fitted or top-dose-only effect; inactive = flat fitted curve, though single readings scatter. Potencies of inconclusive entries are doubtful fits and often do not repeat. Potency is read from the fitted curve at half-maximal effect; tags tell the direction and shape of the fitted curve.",
  "data": [
    {"biological_target": "Luciferin 4-monooxygenase (Photinus pyralis) (UniProt P08659)", "sequence (P08659 whole entry, looked up)": "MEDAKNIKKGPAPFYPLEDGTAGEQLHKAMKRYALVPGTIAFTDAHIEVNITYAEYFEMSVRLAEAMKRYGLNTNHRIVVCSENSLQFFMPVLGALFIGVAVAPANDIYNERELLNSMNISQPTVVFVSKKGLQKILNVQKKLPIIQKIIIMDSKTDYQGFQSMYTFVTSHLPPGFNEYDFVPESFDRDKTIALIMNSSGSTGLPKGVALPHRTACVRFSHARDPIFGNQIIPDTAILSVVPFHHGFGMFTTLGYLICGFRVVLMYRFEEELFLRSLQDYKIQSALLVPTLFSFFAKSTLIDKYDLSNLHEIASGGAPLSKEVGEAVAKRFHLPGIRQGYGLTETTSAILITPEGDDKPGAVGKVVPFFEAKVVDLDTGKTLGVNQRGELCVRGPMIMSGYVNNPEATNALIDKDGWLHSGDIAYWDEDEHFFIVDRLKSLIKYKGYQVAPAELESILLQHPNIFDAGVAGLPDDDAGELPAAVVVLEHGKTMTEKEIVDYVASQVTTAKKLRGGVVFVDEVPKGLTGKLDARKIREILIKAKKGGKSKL", "test": "qHTS profiling assay for firefly luciferase inhibitor/activator using purifed enzyme and Km concentrations of substrates (counterscreen for miR-21 project); also: nearly all actives have a fitted effect of over 55% in size;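 as to activity change, negative = inhibition: plate controls were vehicle for no effect and reference inhibitor for full effect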", "conditions": "purified FLuc, luminescence inhibition; series mostly up to 57.5 µM; activity change, negative = inhibition: at the top concentration", "method_in_brief": "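Biochemical qHTS of compounds, final roughly 60 µM downward over six points, against 10 nM purified firefly luciferase using Km concentrations of substrates (10 uM D-luciferin, 10 uM ATP) in Tris acetate pH 7.5 buffer; luminescence output.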", "values": [
      {"smiles": "O=C1NC(=O)N(CCC2=CCCCC2)C(=O)/C1=C/c1cccs1", "Potency": "inconclusive: 23.9 µM [inhibitor, single point]"},
      {"smiles": "ClC1=C(Cl)C(Cl)=C(Cl)C1=C/C=C/c1ccccc1", "Potency": "inconclusive: 10.7 µM [inhibitor, partial curve, poor fit]"},
      {"smiles": "CN1C(=O)C(=Cc2ccc(N3CCOCC3)c([N+](=O)[O-])c2)C(=O)N(C)C1=O", "Potency": "inconclusive: 37.9 µM [inhibitor, partial curve, poor fit]"},
      {"smiles": "O=C1NC(=O)N(Cc2ccco2)C(=O)/C1=C\\c1cccn1CCOc1ccccc1", "Potency": "inconclusive: 37.9 µM [inhibitor, partial curve, poor fit]"},
      {"smiles": "COc1cc(/C=C2\\C(=O)NC(=O)N(c3ccccc3)C2=O)c([N+](=O)[O-])cc1OC", "Potency": "inconclusive: 21.3 µM [inhibitor, partial curve]"},
      {"smiles": "O=C(c1ccc(CNS(=O)(=O)c2ccccc2)cc1)N1CCC2(CC1)OCCO2", "Potency": "inconclusive: 15.1 µM [inhibitor, partial curve]"},
      {"smiles": "COC(=O)C1=Nc2ccccc2/C1=C\\c1c(O)n(C)c(=O)n(C)c1=O", "Potency": "inconclusive: 37.9 µM [inhibitor, single point]"},
      {"smiles": "Cc1cc(/C=C2\\C(=O)NC(=O)N(c3ccc(Br)cc3)C2=O)c(C)n1-c1cc(C(=O)O)cc(C(=O)O)c1", "Potency": "inconclusive: 37.9 µM [inhibitor, partial curve, poor fit]"},
      {"smiles": "COc1ccc(-n2c(/C=C/c3ccc(O)c(OC)c3)nc3ccccc3c2=O)cc1", "Potency": "inconclusive: 21.3 µM [inhibitor, single point]"},
      {"smiles": "COC(=O)C(O)(c1ccc(NC(=S)NC(=O)c2ccccc2)cc1)C(F)(F)F", "note": "(stereo not drawn)", "Potency": "inconclusive: 23.9 µM [inhibitor, partial curve, poor fit]"},
      {"smiles": "O=C1NC(=O)N(c2ccccc2)C(=O)/C1=C/c1ccc([N+](=O)[O-])s1", "Potency": "active: 26.9 µM"},
      {"smiles": "O=C1/C(=C/c2ccccc2Cl)N2CCC1CC2", "Potency": "inconclusive: 21.3 µM [inhibitor, single point]"},
      {"smiles": "Cc1ccc(Nc2nnc(-c3ccc(C)c(S(=O)(=O)NCc4nc5ccccc5[nH]4)c3)c3ccccc23)cc1", "Potency": "inconclusive: 6.01 µM [inhibitor, partial curve, poor fit]"},
      {"smiles": "CCC(=O)Oc1ccc(C(=O)Nc2cccc(C(=O)c3ccccc3)c2)cc1", "Potency": "active: 16.9 µM"},
      {"smiles": "O=C1C2CCN(CC2)C1Cc1ccc(OCCOc2ccccc2)cc1", "note": "(stereo not drawn)", "Potency": "inconclusive: 30.1 µM [inhibitor, partial curve, poor fit]"},
      {"smiles": "CN1C(=O)C(=Cc2ccc(OCC(=O)Nc3ccccc3)cc2)C(=O)N(C)C1=O", "Potency": "inconclusive: 37.9 µM [inhibitor, single point]"},
      {"smiles": "O=C1NC(=O)N(c2ccccc2)C(=O)/C1=C/C=C/c1ccco1", "Potency": "inconclusive: 37.9 µM [inhibitor, single point]"},
      {"smiles": "CCn1c(O)c(/C=N/NC(=O)c2ccncc2)c(=O)[nH]c1=S", "Potency": "inconclusive: 21.3 µM [inhibitor, single point]"},
      {"smiles": "COc1ccc(NC(=O)CCn2cc(C)c3ccccc32)cc1", "Potency": "inconclusive: 30.1 µM [inhibitor, single point]"},
      {"smiles": "COc1ccnc(N=CNOCc2ccc(C)cc2)c1C#N", "Potency": "inconclusive: 16.9 µM [inhibitor, partial curve]"},
      {"smiles": "CCOc1ccc(C(=O)Nc2cccc(C(=O)OCc3cc(=O)n4nc(C5CC5)sc4n3)c2)cc1", "Potency": "active: 1.9 µM"},
      {"smiles": "O=C(Nc1ccc(Cl)cc1)N1CC2CC(C1)c1cccc(=O)n1C2", "note": "(stereo not drawn)", "Potency": "inconclusive: 10.7 µM [inhibitor, partial curve, poor fit]"},
      {"smiles": "Cc1ccc(S(=O)(=O)Oc2ccccc2C=C2C(=O)N(C)C(=O)N(C)C2=O)cc1", "Potency": "inconclusive: 30.1 µM [inhibitor, single point]"},
      {"smiles": "CC(=NCc1cccnc1)c1c(O)n(C2CCCCC2)c(=O)[nH]c1=O", "activity change, negative = inhibition": "inactive: 2.59%"},
      {"smiles": "Cc1c(C=C2C(=O)N(C)C(=S)N(C)C2=O)c2ccccc2n1CC(=O)NCC1CCCO1", "note": "(stereo not drawn)", "Potency": "inconclusive: 23.9 µM [inhibitor, partial curve, poor fit]"},
      {"smiles": "CC(C)Oc1ccc(NC(=O)c2cc3ccccc3o2)cc1", "Potency": "active: 1.51 µM"},
      {"smiles": "O=C1NC(=S)NC(=O)C1=Cc1cccn1-c1ccc(O)cc1", "Potency": "inconclusive: 9.53 µM [inhibitor, partial curve]"},
      {"smiles": "CC1CCc2c(sc3nc(CSc4n[nH]c(N)n4)[nH]c(=O)c23)C1", "note": "(stereo not drawn)", "Potency": "inconclusive: 33.8 µM [inhibitor, single point]"},
      {"smiles": "CC/C(=N\\Nc1cccc2ccccc12)c1c(O)[nH]c(=O)[nH]c1=O", "Potency": "inconclusive: 26.9 µM [inhibitor, partial curve, poor fit]"},
      {"smiles": "CCOc1ccc(N2C(=O)NC(=O)/C(=C/c3cnc(SC)nc3)C2=O)cc1", "Potency": "inconclusive: 26.9 µM [inhibitor, partial curve]"},
      {"smiles": "O=C(COC(=O)Cc1ccccc1)NC12CC3CC(CC(C3)C1)C2", "Potency": "inconclusive: 33.8 µM [inhibitor, single point]"},
      {"smiles": "CC1=NN(c2ccccc2)C(=O)/C1=C/c1c(O)[nH]c(=O)[nH]c1=O", "Potency": "inconclusive: 26.9 µM [inhibitor, single point]"},
      {"smiles": "O=C(N/N=C/c1c(O)n(Cc2ccccc2)c(=O)[nH]c1=O)c1ccncc1", "Potency": "inconclusive: 37.9 µM [inhibitor, partial curve, poor fit]"},
      {"smiles": "O=C1NC(=S)N(c2ccc(F)cc2)C(=O)/C1=C/c1ccco1", "Potency": "inconclusive: 37.9 µM [inhibitor, partial curve, poor fit]"},
      {"smiles": "C=C(C)Cn1c(=O)n(CC2CS2)c2ccccc21", "note": "(stereo not drawn)", "activity change, negative = inhibition": "inactive: 2.91%"},
      {"smiles": "Cc1ccc(C)c(Cn2c(C(=O)O)c(C=O)c3ccccc32)c1", "Potency": "inconclusive: 37.9 µM [inhibitor, partial curve, poor fit]"},
      {"smiles": "CN(C)C(=S)SSC(=S)N(C)C", "Potency": "inconclusive: 9.53 µM [inhibitor, partial curve]"},
      {"smiles": "CCc1ccc(N2C(=O)NC(=O)/C(=C\\c3cccn3CCOc3ccc(C(C)C)cc3)C2=O)cc1", "activity change, negative = inhibition": "inactive: -0.855%"},
      {"smiles": "O=C(Cc1ccccc1)OCc1ccccc1", "Potency": "inconclusive: 37.9 µM [inhibitor, single point]"},
      {"smiles": "C=Cc1ccc(Cn2c(C(=O)O)c(C=O)c3ccccc32)cc1", "Potency": "inconclusive: 21.3 µM [inhibitor, partial curve]"},
      {"smiles": "O=C(O)COc1ccc(/C=C2/SC(=S)N(Cc3ccccc3)C2=O)cc1", "Potency": "inconclusive: 37.9 µM [inhibitor, partial curve, poor fit]"},
      {"smiles": "CN1CCc2nc(SC(C(=O)O)c3ccccc3)c(C#N)c(-c3cccs3)c2C1", "note": "(stereo not drawn)", "Potency": "inconclusive: 37.9 µM [inhibitor, partial curve, poor fit]"},
      {"smiles": "CCOC(=O)c1ccc(N=C(CC)c2c(O)n(C)c(=O)n(C)c2=O)cc1", "activity change, negative = inhibition": "inactive: -0.66%"},
      {"smiles": "C=CCN1C(=O)NC(=O)/C(=C\\c2ccc(-c3ccccc3[N+](=O)[O-])o2)C1=O", "Potency": "inconclusive: 30.1 µM [inhibitor, single point]"},
      {"smiles": "Brc1ccc(Oc2ccc(Br)cc2Br)c(Br)c1", "Potency": "inconclusive: 26.9 µM [inhibitor, single point]"},
      {"smiles": "O=C(NCC(c1cccnc1)N1CCOCC1)Oc1ccccc1", "note": "(stereo not drawn)", "Potency": "active: 15.1 µM"},
      {"smiles": "O=C(O[C@@H]1Cc2c(O)cc(O)cc2O[C@@H]1c1cc(O)c(O)c(O)c1)c1cc(O)c(O)c(O)c1", "Potency": "inconclusive: 21.3 µM [inhibitor, single point]"},
      {"smiles": "Cc1ccc(N2C(=O)NC(=O)/C(=C\\c3ccoc3)C2=O)cc1", "Potency": "inconclusive: 37.9 µM [inhibitor, single point]"},
      {"smiles": "CCN1C(=O)NC(=O)/C(=C\\c2cn(CC(=O)O)c3ccccc23)C1=O", "Potency": "inconclusive: 23.9 µM [inhibitor, partial curve, poor fit]"},
      {"smiles": "COc1ccccc1-n1c(O)c(/C=C2\\C=Nc3ccccc32)c(=O)[nH]c1=O", "Potency": "inconclusive: 21.3 µM [inhibitor, single point]"},
      {"smiles": "C=CCn1c(O)c(C=Nc2ccc(OC)cc2C)c(=O)[nH]c1=O", "Potency": "inconclusive: 30.1 µM [inhibitor, partial curve, poor fit]"},
      {"smiles": "N#CCSc1nnc(-c2ccc3c(c2)OCO3)o1", "Potency": "inconclusive: 26.9 µM [inhibitor, single point]"},
      {"smiles": "Cc1ccc(-c2nc3ccccc3c(=O)n2-c2cccc(C)n2)cc1", "Potency": "inconclusive: 23.9 µM [inhibitor, partial curve]"},
      {"smiles": "COCCOC(=O)c1c(C)oc2ccc(OC(=O)N(C)C)cc12", "Potency": "inconclusive: 26.9 µM [inhibitor, partial curve, poor fit]"},
      {"smiles": "CCN(CC)C(=O)c1ccc(NC(=O)c2c(C)noc2C)cc1", "activity change, negative = inhibition": "inactive: 3.1%"},
      {"smiles": "CN(C)C(Cc1ccc(Cl)cc1)C(=O)c1ccccc1", "note": "(stereo not drawn)", "Potency": "inconclusive: 26.9 µM [inhibitor, single point]"},
      {"smiles": "Cc1ccc(C(=O)n2c(N)nc3ccccc32)cc1", "Potency": "active: 0.19 µM"},
      {"smiles": "COC(=O)C1=C(c2ccc(Cl)c(C(F)(F)F)c2)C[C@@H]2CC[C@H]1N2C(=O)NC1CC1", "activity change, negative = inhibition": "inactive: -0.397%"},
      {"smiles": "S=C(Nc1ccc(Br)cc1Cl)N1CCC2(CC1)OCCO2", "Potency": "inconclusive: 26.9 µM [inhibitor, single point]"},
      {"smiles": "Cc1cc(C=C2C(=O)N(C)C(=S)N(C)C2=O)c(C)n1C1CCCC1", "Potency": "active: 2.39 µM"},
      {"smiles": "O=C1NC(=O)N(Cc2ccc(F)cc2)C(=O)/C1=C/c1cccs1", "Potency": "inconclusive: 6.75 µM [inhibitor, partial curve]"},
      {"smiles": "COc1cccc(N=Nc2c(O)[nH]c(=S)[nH]c2=O)c1", "Potency": "active: 13.5 µM"},
      {"smiles": "COCCOC(=O)c1c(N)n(Cc2ccc(OC)cc2)c2nc3ccccc3nc12", "Potency": "inconclusive: 37.9 µM [inhibitor, partial curve, poor fit]"}
    ]}
  ]
}
